Experimental data published in article PMC11695619.
Read-outs that look alike come from different tables or passages of the source. No constants are given. Whether binding was seen depends on the method and setting. Binding seen in cells or lysates may run through a third protein. Some binding calls cover weakened binding; strength is not graded here. Each block holds one molecule with its values, some of them ahead of it.

Chains of the proteins cited; added tags and fusions are not shown.
UniProt Q78T81: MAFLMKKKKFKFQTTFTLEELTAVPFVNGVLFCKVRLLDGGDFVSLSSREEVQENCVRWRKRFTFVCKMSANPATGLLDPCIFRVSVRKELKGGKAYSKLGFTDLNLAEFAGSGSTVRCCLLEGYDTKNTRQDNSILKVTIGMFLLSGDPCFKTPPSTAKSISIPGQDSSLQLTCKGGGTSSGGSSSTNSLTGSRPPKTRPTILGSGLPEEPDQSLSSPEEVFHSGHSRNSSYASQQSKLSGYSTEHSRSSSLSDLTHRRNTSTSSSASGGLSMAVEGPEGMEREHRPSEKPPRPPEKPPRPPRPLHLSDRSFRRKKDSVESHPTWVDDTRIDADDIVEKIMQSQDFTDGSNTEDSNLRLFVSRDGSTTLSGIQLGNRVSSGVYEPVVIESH
UniProt Q08775: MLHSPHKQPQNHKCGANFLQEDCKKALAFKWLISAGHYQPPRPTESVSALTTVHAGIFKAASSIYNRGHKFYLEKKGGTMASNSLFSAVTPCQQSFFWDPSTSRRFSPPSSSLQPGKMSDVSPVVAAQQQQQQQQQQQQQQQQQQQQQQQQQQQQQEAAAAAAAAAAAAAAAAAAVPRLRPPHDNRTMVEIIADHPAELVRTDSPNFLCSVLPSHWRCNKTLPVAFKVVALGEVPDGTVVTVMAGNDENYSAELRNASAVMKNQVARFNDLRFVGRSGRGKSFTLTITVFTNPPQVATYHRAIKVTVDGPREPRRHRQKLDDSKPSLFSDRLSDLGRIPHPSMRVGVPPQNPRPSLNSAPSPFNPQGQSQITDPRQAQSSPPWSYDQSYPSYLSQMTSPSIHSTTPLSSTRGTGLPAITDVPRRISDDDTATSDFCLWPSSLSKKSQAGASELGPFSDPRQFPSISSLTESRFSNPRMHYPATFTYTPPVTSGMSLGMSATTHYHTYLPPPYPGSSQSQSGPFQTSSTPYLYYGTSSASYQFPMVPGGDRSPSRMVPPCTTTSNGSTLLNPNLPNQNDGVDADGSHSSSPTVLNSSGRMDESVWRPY
UniProt P46938: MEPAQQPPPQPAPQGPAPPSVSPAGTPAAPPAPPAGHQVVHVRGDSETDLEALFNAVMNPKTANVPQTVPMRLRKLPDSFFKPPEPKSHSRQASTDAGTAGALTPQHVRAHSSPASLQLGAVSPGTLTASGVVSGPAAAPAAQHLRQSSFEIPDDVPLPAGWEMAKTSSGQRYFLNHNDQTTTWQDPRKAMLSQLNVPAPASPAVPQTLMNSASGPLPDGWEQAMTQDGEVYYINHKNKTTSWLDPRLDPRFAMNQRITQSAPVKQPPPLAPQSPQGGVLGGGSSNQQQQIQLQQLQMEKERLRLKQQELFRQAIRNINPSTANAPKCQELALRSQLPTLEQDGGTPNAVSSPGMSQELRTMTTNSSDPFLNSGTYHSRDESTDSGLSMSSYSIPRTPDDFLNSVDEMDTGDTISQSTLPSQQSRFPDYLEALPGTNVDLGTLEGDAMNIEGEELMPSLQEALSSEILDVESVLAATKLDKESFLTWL
UniProt Q9EPK5: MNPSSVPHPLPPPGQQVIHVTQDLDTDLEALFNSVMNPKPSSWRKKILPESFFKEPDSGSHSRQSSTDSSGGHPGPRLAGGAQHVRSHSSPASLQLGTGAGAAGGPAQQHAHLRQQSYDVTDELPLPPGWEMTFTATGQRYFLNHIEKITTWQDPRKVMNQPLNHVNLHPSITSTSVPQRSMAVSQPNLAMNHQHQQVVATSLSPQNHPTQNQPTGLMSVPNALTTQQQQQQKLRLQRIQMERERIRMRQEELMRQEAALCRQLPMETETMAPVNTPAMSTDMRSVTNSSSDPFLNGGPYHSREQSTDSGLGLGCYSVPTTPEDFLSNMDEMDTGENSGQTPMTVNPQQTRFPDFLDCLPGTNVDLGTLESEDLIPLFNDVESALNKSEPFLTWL
UniProt O08674: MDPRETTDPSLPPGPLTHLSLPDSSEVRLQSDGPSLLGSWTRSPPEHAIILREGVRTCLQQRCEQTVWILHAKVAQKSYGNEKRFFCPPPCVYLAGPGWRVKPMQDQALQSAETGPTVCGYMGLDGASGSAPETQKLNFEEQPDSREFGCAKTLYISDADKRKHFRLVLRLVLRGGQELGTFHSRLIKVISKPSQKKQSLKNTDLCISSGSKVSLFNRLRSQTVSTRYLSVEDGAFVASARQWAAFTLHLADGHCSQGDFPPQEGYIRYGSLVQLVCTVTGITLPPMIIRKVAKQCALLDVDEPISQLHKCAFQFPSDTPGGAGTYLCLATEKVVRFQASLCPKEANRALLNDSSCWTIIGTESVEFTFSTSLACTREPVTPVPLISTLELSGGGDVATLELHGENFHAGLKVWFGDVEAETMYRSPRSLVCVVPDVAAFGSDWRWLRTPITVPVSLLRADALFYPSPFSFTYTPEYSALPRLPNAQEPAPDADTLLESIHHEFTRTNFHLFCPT

Legend:
Test in all cases: co-IP; HEK293 cells transfected with each expression gene, lysed; immunoprecipitation with anti-DDDDK-tag, anti-HA-tag or anti-Myc-tag magnetic beads; blots with anti-FLAG, anti-HA and anti-Myc
[1] = biological target: family with sequence similarity 102 member A (Fam102a) (UniProt Q78T81)
[2] = biological target: runt-related transcription factor 2 (Runx2) (UniProt Q08775)
[3] = biological target: family with sequence similarity 102 member A (Fam102a) (UniProt Q78T81); remark: listed apart in the source

- binding [1]: no binding
Molecule: yes-associated protein 1 (Yap1) (from UniProt P46938 1-488)

- binding [3]: no binding
B1: hes family bHLH transcription factor 1 (Hes1) (protein, UniProt P35428 1-282)
chain: MPADIMEKNSSSPVAATPASVNTTPDKPKTASEHRKSSKPIMEKRRRARINESLSQLKTLILDALKKDSSRHSKLEKADILEMTVKHLRNLQRAQMTAALSTDPSVLGKYRAGFSECMNEVTRFLSTCEGVNTEVRTRLLGHLANCMTQINAMTYPGQAHPALQAPPPPPPSGPAGPQHAPFAPPPPPLVPIPGGAAPPPGSAPCKLGSQAGEAAKVFGGFQVVPAPDGQFAFLIPNGAFAHSGPVIPVYTSNSGTSVGPNAVSPSSGSSLTSDSMWRPWRN

The next lines start with the molecule.

Molecule: transcriptional coactivator with PDZ-binding motif (Taz) (from UniProt Q9EPK5 1-395)
- binding [1]: no binding

Molecule: recombination signal binding protein for immunoglobulin κ J region-like (Rbpjl) (from UniProt O08674 1-515)
- binding [2]: binds
- binding [1]: binds
